Test results as given in PubChem BioAssay AID488969 (Vanderbilt High Throughput Screening Facility, 2010).
The full ranking holds about 110,000 compounds; the median of “z-score” is about -0.1, and the highest 2% start at about 2. The list shows a part of the results. Activity calls are given as the source filed them.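 The calls were made as follows: active = z-score in the third read window above 3 or below -3; inactive = the rest.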

biological target: Metabotropic glutamate receptor 8 (Rattus norvegicus) (UniProt P70579); assay: mGluR8 Gi/Go-coupled signaling modulation – cell-based, rat, thallium flux, HTS, primary screen (AID 488969); conditions: HEK293 rat mGluR8, GIRK (G protein-gated inwardly rectifying potassium channel) thallium flux, FluoZin2; at 10 µM; stronger effect = higher value; submaximal glutamate (EC20) added with thallium
UniProt P70579, sequence (P70579 whole entry, looked up): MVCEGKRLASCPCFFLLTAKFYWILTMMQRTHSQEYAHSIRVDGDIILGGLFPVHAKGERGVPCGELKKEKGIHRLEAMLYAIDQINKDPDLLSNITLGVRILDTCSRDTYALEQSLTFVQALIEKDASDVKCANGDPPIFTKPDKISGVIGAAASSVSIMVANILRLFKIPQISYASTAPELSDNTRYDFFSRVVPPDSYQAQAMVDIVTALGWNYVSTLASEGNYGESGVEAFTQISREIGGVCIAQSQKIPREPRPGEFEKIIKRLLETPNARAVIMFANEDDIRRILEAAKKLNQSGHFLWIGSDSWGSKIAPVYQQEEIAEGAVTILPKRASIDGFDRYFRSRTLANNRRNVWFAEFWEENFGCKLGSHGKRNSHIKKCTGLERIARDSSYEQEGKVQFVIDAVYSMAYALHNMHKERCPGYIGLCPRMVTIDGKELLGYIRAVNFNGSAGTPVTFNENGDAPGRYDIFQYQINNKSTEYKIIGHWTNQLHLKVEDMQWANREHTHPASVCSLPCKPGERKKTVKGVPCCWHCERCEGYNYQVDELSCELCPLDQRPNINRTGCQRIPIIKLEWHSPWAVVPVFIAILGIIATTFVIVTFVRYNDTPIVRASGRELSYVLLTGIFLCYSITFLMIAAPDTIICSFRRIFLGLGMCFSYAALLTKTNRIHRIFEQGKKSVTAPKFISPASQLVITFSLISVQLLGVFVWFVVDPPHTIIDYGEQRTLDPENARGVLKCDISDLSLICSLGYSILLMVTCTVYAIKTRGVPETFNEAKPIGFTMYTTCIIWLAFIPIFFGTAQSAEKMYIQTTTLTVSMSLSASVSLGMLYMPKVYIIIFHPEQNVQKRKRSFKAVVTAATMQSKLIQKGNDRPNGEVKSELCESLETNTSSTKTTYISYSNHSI

| SMILES | z-score |
| --- | --- |
| O=c1cc(O)c(-c2cccc(Cl)c2)c(Cl)[nH]1 | -0.757 |
| CS(=O)(=O)c1ccc(N2CCOCC2)c(S(C)(=O)=O)c1 | -0.213 |
| COc1cc(CNn2cnnc2)ccc1OCC(=O)NC1CCCCC1 | 0.0541 |
| CSC1=NCCN1C(=O)c1cccs1 | 1.93 |
| COc1cccc(CN2CCN(C(=O)c3ccco3)CC2)c1OC | 0.242 |
| CCCCOc1ccc(CN(CCO)CCO)cc1[N+](=O)[O-] | -0.499 |
| Cc1[nH]c2ccccc2c1C(=O)CNc1nccs1 | -0.301 |
| COc1ccc(S(=O)(=O)N2CCN(c3ccccn3)CC2)cc1OC | 0.269 |
| O=C(CC(=O)c1ccccc1O)c1cccc(F)c1 | active: 3.63 |
| CN1CCCC(OC(=O)CCCC(=O)OC2CCCN(C)C2)C1 (configuration not stated) | -0.15 |
| O=C1N(c2ccc(Cl)c(Cl)c2)CN(Cc2ccccc2)CN1n1cnnc1 | -0.237 |
| CC(C)CCn1c(S(=O)(=O)O)nc2ccccc21 | active: 3.16 |
| S=C(Nc1ccc(OCc2ccccc2)cc1)Nc1cccc(Cl)c1Cl | 0.844 |
| COc1cc(CNCCN2CCOCC2)ccc1OCc1ccccc1Cl | 0.465 |
| Cc1ccc(-c2noc(CCC(=O)NCCN3CCN(Cc4ccccc4)CC3)n2)cc1 | -0.696 |
| CN(CC(=O)Nc1ccc(F)c(F)c1F)C1CCCCC1 | 0.326 |

| SMILES | z-score |
| --- | --- |
| Cc1nnc(SCC(=O)N(Cc2ccccc2)C(C)C)n1-c1ccccc1 | -0.101 |
| CC(C)C(=O)NC(=S)Nc1ccc(S(=O)(=O)N(C)Cc2ccccc2)cc1 | 0.833 |
| FCCCOc1ccc(-c2nccc(-c3ccc(Br)cc3)n2)cc1 | -0.0253 |
| O=C(Nc1ccccc1)c1ccc2c(c1)OCCO2 | -0.878 |
| Nc1c(C(=O)NC2CCCC2)c2nc3ccccc3nc2n1/N=C/c1ccco1 | -0.834 |
| Cc1ccc(C(=O)c2cc([N+](=O)[O-])ccc2N2CCCCC2)c(C)c1 | -1.24 |
| CCc1ccccc1-n1c(SCC(=O)NC)nnc1-c1cccnc1 | 0.0375 |
| CCOC(=O)C1CCCN(S(=O)(=O)c2cc(OCC(=O)NC3CCCCC3)c(C)cc2Cl)C1 (configuration not stated) | -0.186 |
| CCc1ccc(CNc2ccc3c(c2)ncn3C)cc1 | 0.65 |
| N#Cc1ccccc1NC(=O)COC(=O)CCc1ccc(S(=O)(=O)N2CCCCC2)cc1 | -0.355 |
| CCC(C)(C)NC(=O)c1ccc(S(=O)(=O)N(C)c2ccccc2OC)cc1 | 0.503 |
| Cc1ccnc(NC(=O)CCC2COc3ccccc3O2)c1 (configuration not stated) | -0.046 |
| CS(=O)(=O)N1CCCC(C(=O)NCCCN2CCc3ccccc3C2)C1 (configuration not stated) | 0.487 |
| O=C(Nc1ccc(S(=O)(=O)Nc2ccc(Cl)cc2)cc1)C1CCCO1 (configuration not stated) | -0.353 |
| CCc1nc(Nc2ccncc2)c2oc3ccccc3c2n1 | -1.25 |
| O=C1C2C(C(=O)N1/N=C/c1ccc(N3CCCCC3)o1)C1C=CC2C12CC2 (configuration not stated) | 1.52 |
